According to PubChem BioAssay AID1476 (National Center for Advancing Translational Sciences (NCATS), 2009):
Hit rate of the full screen: of about 200,000 compounds, about 4,500 (2.2%) were called active. This list was built around the results that the source calls inconclusive (neither active nor inactive); the mix of calls is not that of the screen. The call rests on the fitted dose curve; in most records, active means well fitted inhibition curve with a large enough effect; inconclusive means small, poorly fitted or top-dose-only effect, or effect the other way; inactive means flat fitted curve, though single readings scatter. Potencies of inconclusive entries are doubtful fits and often do not repeat.
Further: nearly all actives have a fitted effect of over 40% in size.
Potency means the concentration at half of the fitted maximal effect; tags describe the fitted curve by direction and shape.
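Wherever max response, negative = inhibition is given: plate controls were enzyme without inhibitor for no effect and buffer without enzyme for full effect.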

These compounds were tested against Cruzipain (Trypanosoma cruzi) (UniProt P25779) (assay: qHTS Assay for Promiscuous and Specific Inhibitors of Cruzain (without detergent)). Conditions: purified cruzain, Z-FR-AMC fluorescence, no detergent.
Sequence of UniProt P25779 (P25779 whole entry, looked up): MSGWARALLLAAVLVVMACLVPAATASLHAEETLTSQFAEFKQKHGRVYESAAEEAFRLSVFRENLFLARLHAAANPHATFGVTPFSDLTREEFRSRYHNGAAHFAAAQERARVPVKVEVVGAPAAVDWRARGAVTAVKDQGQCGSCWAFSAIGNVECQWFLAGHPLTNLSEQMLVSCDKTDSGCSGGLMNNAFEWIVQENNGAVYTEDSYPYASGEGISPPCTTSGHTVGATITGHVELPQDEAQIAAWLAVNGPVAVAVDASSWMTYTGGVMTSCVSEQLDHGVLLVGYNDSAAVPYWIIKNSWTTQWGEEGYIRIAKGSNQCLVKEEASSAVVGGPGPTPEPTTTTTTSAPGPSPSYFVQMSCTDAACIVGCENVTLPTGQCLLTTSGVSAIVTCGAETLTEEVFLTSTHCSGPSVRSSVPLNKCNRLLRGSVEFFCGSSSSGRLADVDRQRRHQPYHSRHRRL
In short: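 Detergent-free condition (0.00005% Triton X-100) in acetate buffer pH 5.5 with DTT. 1.5 nM enzyme and compound were pre-mixed 15 min, then 2 uM Z-FR-AMC substrate added; reaction progress from fluorescence change between first and third reads (60 s).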
In the case of `CCn1cc(C(=O)N(C)c2ccc(C(C)C)cc2)c2cc(OC)c(OC)cc2c1=O`, the Potency is reported as inconclusive: 39.8 µM [activator, single point]. In the case of `COCCn1cc(C(=O)NCc2cccs2)c2c3ccccc3n(C)c2c1=O`, the Potency is reported as inconclusive: 25.1 µM [activator, partial curve]. For `Cc1ccc(Cl)c(NC(=O)COC(=O)c2ccccc2C(=O)c2ccc(Cl)c([N+](=O)[O-])c2)c1Cl`, the Potency was inconclusive: 31.6 µM [inhibitor, single point]. `COc1ccc(S(=O)(=O)N2CCN(c3ccccc3OC)CC2)cc1OC` was tested, and the Potency was inconclusive: 31.6 µM [activator, single point]. In the case of `CCOC(=O)/C(=C\C=C1/Sc2cc(OCC)c(OCC)cc2N1CC)C(C)=O`, the Potency is reported as inconclusive: 39.8 µM [activator, single point]. With `COc1cc2c(cc1OC)C(COc1ccc3c(C)cc(=O)oc3c1)N(C(=O)c1ccccc1F)CC2` (centres undefined) the Potency was inconclusive: 6.31 µM [activator, single point]. In the case of `COCCn1c(=O)c(CCc2ccccc2)nc2cnc(Oc3cccc(Cl)c3)nc21`, the max response, negative = inhibition is reported as inactive: 7.37%. `CCCCOc1ccccc1C1C(C(=O)OC)=C(C)N(C)C(C)=C1C(=O)OC` was tested, and the Potency was inconclusive: 39.8 µM [activator, single point]. For `COc1ccc(/C=C(/CC(=O)Nc2ccc(C)cc2)c2nc3ccccc3s2)cc1`, the Potency was active: 31.6 µM. In the case of `CCOc1cc(CNc2ccc(N3CCN(C(C)=O)CC3)cc2)cc(Br)c1OC`, the Potency is reported as inconclusive: 39.8 µM [activator, single point]. `CCOC(=O)c1c(-c2ccccc2)csc1NC(=O)c1nn(CC)cc1Br` was tested, and the Potency was inconclusive: 31.6 µM [inhibitor, single point]. For `Cc1ccc(/C=N/NC(=O)c2cc3c(ccc4ccccc43)o2)cc1[N+](=O)[O-]`, the Potency was active: 6.31 µM. `COc1ccc(CCNC(=O)C2CCN(c3nc4ccccc4nc3C(F)(F)F)CC2)c(OC)c1` was tested, and the max response, negative = inhibition was inactive: -3.67%. For `Cc1ccc(C)c(CN2C(=O)C3(c4ccccc42)N(c2ccc(Cl)cc2)C(=O)CS3(=O)=O)c1` (centres undefined), the Potency was active: 3.16 µM. In the case of `COC(=O)c1cc2nc(-c3ccccc3)cc(C)n2n1`, the Potency is reported as inconclusive: 0.002 µM [activator, full curve]. For `COc1ccc(C2C(C(N)=O)=C(C)Nc3nc(-c4cccc(Cl)c4)nn32)cc1OC` (centres undefined), the Potency was inconclusive: 31.6 µM [activator, single point]. With `Cc1ccccc1OCC(=O)Nc1ccc2nc(SCc3ccccc3)sc2c1` the Potency was inconclusive: 3.16 µM [inhibitor, single point]. For `COc1ccc2nc(Nc3nc(C)c(CCC(C)C)c(=O)[nH]3)nc(C)c2c1`, the Potency was inconclusive: 20 µM [activator, partial curve]. `COc1ccc(OCC(=O)NNC(=O)c2ccc(-c3ccccc3)cc2)cc1` was tested, and the Potency was inconclusive: 39.8 µM [inhibitor, single point]. `CC(C)(C)c1cc(C(=O)/C=C/c2ccc(C(=O)O)cc2)cc(C(C)(C)C)c1` was tested, and the max response, negative = inhibition was inactive: 10.8%. In the case of `COc1ccc(-n2nc3cc(C)c(NC(=S)NC(=O)c4ccccc4C)cc3n2)cc1`, the Potency is reported as active: 12.6 µM. For `Cc1cccc(CCNC(=O)CN(c2ccc(C(C)C)cc2)S(=O)(=O)c2c(C)nn(C)c2C)c1`, the Potency was inconclusive: 7.94 µM [activator, single point]. In the case of `CCOC(=O)CSc1nc2cc(C(=O)NCC3CCCO3)ccc2c(=O)n1Cc1ccco1` (centres undefined), the Potency is reported as inconclusive: 39.8 µM [activator, single point]. For `CCn1c(C(=O)NCc2cc(Br)ccc2OC)cc2oc3ccccc3c21`, the Potency was active: 31.6 µM. In the case of `CO[C@]12C[C@@H](COC(=O)c3cncc(Br)c3)CN(C)[C@@H]1Cc1cn(C)c3cccc2c13`, the max response, negative = inhibition is reported as inactive: 6.56%. For `COc1ccc(-c2[nH]n(-c3ccc([N+](=O)[O-])cc3)c(=O)c2C=NCc2ccccc2)cc1`, the Potency was inconclusive: 39.8 µM [inhibitor, single point]. For `Cc1ccc(-c2nn(-c3ccccc3)cc2/C=C(\C#N)c2cccc(C#N)c2)o1`, the Potency was inconclusive: 15.8 µM [inhibitor, partial curve, poor fit]. With `C/C=C/c1ccc(OCCCCN2C(=O)NC(C)(C)C2=O)c(OC)c1` the Potency was inconclusive: 31.6 µM [activator, single point]. For `COc1cccc(Nc2ncc3nc(C)c(=O)n(C[C@H]4CCCO4)c3n2)c1`, the Potency was inconclusive: 39.8 µM [activator, single point]. For `O=C(NCc1ccc(F)cc1)c1ccc2c(c1)nnn2C1CCCC1`, the max response, negative = inhibition was inactive: 11.3%. With `COc1ccc(N2C(=O)CS(=O)(=O)C23C(=O)N(Cc2ccc(C)cc2)c2ccccc23)cc1Cl` (centres undefined) the Potency was active: 2.51 µM. For `CCOC(=O)c1noc2nc(C)n(Cc3cccc(C#N)c3)c(=O)c12`, the max response, negative = inhibition was inactive: -6.67%. In the case of `CC1Cc2ccccc2N1C(=O)COc1nc2ccccc2nc1N1CCOCC1` (centres undefined), the Potency is reported as inconclusive: 31.6 µM [activator, single point]. In the case of `CCC(/C=N/Nc1ccc(S(=O)(=O)N2CCCC2)cc1[N+](=O)[O-])CC`, the Potency is reported as active: 20 µM. With `N#CCCn1c(=O)c(-c2cc(F)cc(F)c2)nc2cnc(Oc3cccc(Cl)c3)nc21` the max response, negative = inhibition was inactive: -9.99%. `COc1ccc(C2C3=C(CCCC3=O)Nc3nc(SCc4ccccc4)nn32)cc1OC` (centres undefined) was tested, and the Potency was inconclusive: 39.8 µM [activator, single point]. With `CC(=O)c1ccc(NC(=O)C2CCC(CNS(=O)(=O)c3cccs3)CC2)cc1` (centres undefined) the max response, negative = inhibition was inactive: 3.96%. `COc1cccc(Cc2nc3ccccc3nc2SCC(=O)NCc2ccc(C)cc2)c1` was tested, and the Potency was inconclusive: 5.01 µM [activator, single point]. With `O=C(O)COc1cccc(-c2ocnc2-c2nc(-c3ccccc3)c(-c3ccccc3)o2)c1` the Potency was active: 7.94 µM. With `CCOc1ccc(CCNC(=O)C2CCN(C(=O)c3cc4sccc4n3CC)CC2)cc1OCC` the Potency was inconclusive: 25.1 µM [activator, partial curve]. For `COCCNC(=O)c1ccc(Cn2c(=S)[nH]c3cc4c(cc3c2=O)OCO4)cc1`, the max response, negative = inhibition was inactive: -8.96%. In the case of `COC(=O)[C@@]1(Cc2ccc(OC)cc2)[C@H]2c3cc(C(=O)N4CCCC4)n(CCc4ccc(O)c(OC)c4)c3C[C@H]2CN1C(=O)c1ccccc1`, the Potency is reported as inconclusive: 25.1 µM [activator, partial curve]. For `CCCCn1c(CNC(=O)C23CC4CC(CC(C4)C2)C3)nnc1SCC(=O)Nc1nnc(C)s1`, the Potency was inconclusive: 25.1 µM [activator, single point]. In the case of `C/C(=C\C(=O)c1cccnc1)Nc1ccc(C(=O)O)cc1`, the max response, negative = inhibition is reported as inactive: -6.82%. `CCCn1c(=O)c2sccc2n2c(CCCC(=O)Nc3ccc(Oc4ccc(Cl)cc4)cc3)nnc12` was tested, and the Potency was inconclusive: 10 µM [activator, partial curve]. `COc1cccc(-c2nnc(SCC(=O)NC3CCCCC3)o2)c1` was tested, and the max response, negative = inhibition was inactive: 3.59%. For `COc1ccc(S(=O)(=O)Nc2ccc(-c3cn4ccsc4n3)cc2)cc1C`, the Potency was inconclusive: 39.8 µM [inhibitor, single point]. For `NC(=S)N/N=C\c1c2ccccc2cc2ccccc12`, the Potency was active: 1 µM. `CCOC(=O)c1[nH]c2ccc(OC)cc2c1NC(=S)N1CCN(c2ccccc2OC)CC1` was tested, and the Potency was inconclusive: 25.1 µM [activator, single point]. With `CCCCOc1ccc(S(=O)(=O)Nc2ccc(-c3ccc(N4CCC(C)CC4)nn3)cc2)cc1` the Potency was inconclusive: 6.31 µM [inhibitor, single point]. In the case of `COc1ccc(C(=O)CSc2nnc(-c3cc(C)on3)o2)cc1`, the max response, negative = inhibition is reported as inactive: -16.2%. For `CN1CCC2(CCN3CCc4c(oc5ccccc45)C3C2)N(C)C1=O` (centres undefined), the max response, negative = inhibition was inactive: 3.17%. In the case of `Cc1cccc(CSc2nc(-c3cccs3)ccc2C#N)c1`, the Potency is reported as inconclusive: 39.8 µM [inhibitor, single point]. `COc1ccc(NC(=O)C2CCCN(S(=O)(=O)c3ccc4c(c3)oc(=O)n4C)C2)c(OC)c1` (centres undefined) was tested, and the Potency was inconclusive: 39.8 µM [activator, single point]. For `COc1ccc(-c2cc(C(=O)Oc3ccc([N+](=O)[O-])cc3)c3ccccc3n2)cc1`, the Potency was inconclusive: 2.51 µM [inhibitor, partial curve, poor fit]. `CCOC(=O)c1cc(-c2ccccc2)sc1NC(=O)C(C)N1C(=O)NC(C)(c2ccc(Cl)cc2)C1=O` (centres undefined) was tested, and the Potency was active: 3.98 µM. In the case of `CCCOc1ccc(-c2nn(-c3ccccc3)cc2/C=C2\SC(N)=NC2=O)cc1C`, the Potency is reported as active: 12.6 µM. With `Cc1coc2c(C)c3oc(=O)c(CC(=O)NCCc4ccc(Cl)cc4)c(C)c3cc12` the max response, negative = inhibition was inactive: -5.32%. `COc1ccc(CCN2C(=O)c3[nH]nc(-c4ccccc4O)c3C2c2cccc(Cl)c2)cc1` (centres undefined) was tested, and the Potency was inconclusive: 39.8 µM [inhibitor, single point]. With `CC(C)(C)n1nnnc1CN1CCN(C(c2ccccc2)c2ccccc2)CC1` the Potency was inconclusive: 39.8 µM [activator, single point]. For `CCc1ccccc1NC(=O)N1CCc2c([nH]c3ccccc23)C1c1ccc(C)cc1` (centres undefined), the Potency was inconclusive: 39.8 µM [inhibitor, single point]. With `COc1cccc(N2CCN(C(=O)CN(C)S(=O)(=O)c3ccc4c(c3)CCC(=O)N4)CC2)c1` the Potency was inconclusive: 39.8 µM [activator, single point]. For `CCOc1ccc(C2=NNC(c3cccs3)=Nc3ccc(OC)cc32)cc1`, the Potency was inconclusive: 31.6 µM [inhibitor, single point]. In the case of `CC1CCc2c(sc(NC(=O)C3c4ccccc4Oc4ccccc43)c2C(N)=O)C1` (centres undefined), the Potency is reported as active: 25.1 µM.
